Results on one molecule are retold here after patent US20250019461A1, “HER3 ANTIGEN-BINDING MOLECULES” (Hummingbird Bioscience Pte. Ltd., priority 2018, published 2025).

The subject of one assay is cynomolgus macaque HER3. Put plainly: ELISA for antibody specificity and cross-reactivity. The following applies: antibody up to 10 μg/ml. It is filed as binding. On the procedure:
(§1) ELISAs were used to determine the binding specificity of the antibodies. The antibodies were analysed for binding to human HER3 polypeptide, as well as respective mouse, rat and monkey homologues of HER3 (Sino Biological Inc., China). The antibodies were also analysed for their ability to bind to human EGFR and human HER2 (Sino Biological Inc., China).
(§2) ELISAs were carried out according to standard protocols. Briefly, 96-well plates (Nunc, Denmark) were coated with 0.1 μg/ml of target polypeptide in phosphate-buffered saline (PBS) for 16 h at 4° C. After blocking for 1 h with 1% BSA in Tris buffer saline (TBS) at room temperature, the anti-HER3 antibody was serially diluted with the highest concentration being 10 μg/ml, and added to the plate. Post 1 h incubation at room temperature, plates were washed three times with TBS containing 0.05% Tween 20 (TBS-T) and were then incubated with a HRP-conjugated anti-His antibody (Life Technologies, Inc., USA) for 1 h at room temperature. After washing, plates were developed with colorimetric detection substrate 3,3′,5,5′-tetramethylbenzidine (Turbo-TMB; Pierce, USA) for 10 min. The reaction was stopped with 2M H2SO4, and OD was measured at 450 nm.
(§3) M. musculus, R. norvegicus and M. cynomolgus HER3 homologues share 91.1, 91.0 and 98.9% sequence identity respectively with human HER3 and the HER3 signalling pathways are conserved between the four species.
(§4) ELISAs were performed as above.
(An ELISA detects its analyte on a solid surface through an enzyme-linked reagent.)

A further assay has as its target T1, mouse HER3 (Mus musculus, UniProt Q61526).
T1 construct: purchased Sino Biological Inc., China
The assay is described as above. It is filed as binding. The note with it: antibody up to 10 μg/ml. Here is the method:
as §1, §2, §3, §4

The target of a further assay is T2, rat HER3 (Rattus norvegicus, UniProt Q62799).
T2 construct: purchased Sino Biological Inc., China
T2 sequence (Q62799 20-1339): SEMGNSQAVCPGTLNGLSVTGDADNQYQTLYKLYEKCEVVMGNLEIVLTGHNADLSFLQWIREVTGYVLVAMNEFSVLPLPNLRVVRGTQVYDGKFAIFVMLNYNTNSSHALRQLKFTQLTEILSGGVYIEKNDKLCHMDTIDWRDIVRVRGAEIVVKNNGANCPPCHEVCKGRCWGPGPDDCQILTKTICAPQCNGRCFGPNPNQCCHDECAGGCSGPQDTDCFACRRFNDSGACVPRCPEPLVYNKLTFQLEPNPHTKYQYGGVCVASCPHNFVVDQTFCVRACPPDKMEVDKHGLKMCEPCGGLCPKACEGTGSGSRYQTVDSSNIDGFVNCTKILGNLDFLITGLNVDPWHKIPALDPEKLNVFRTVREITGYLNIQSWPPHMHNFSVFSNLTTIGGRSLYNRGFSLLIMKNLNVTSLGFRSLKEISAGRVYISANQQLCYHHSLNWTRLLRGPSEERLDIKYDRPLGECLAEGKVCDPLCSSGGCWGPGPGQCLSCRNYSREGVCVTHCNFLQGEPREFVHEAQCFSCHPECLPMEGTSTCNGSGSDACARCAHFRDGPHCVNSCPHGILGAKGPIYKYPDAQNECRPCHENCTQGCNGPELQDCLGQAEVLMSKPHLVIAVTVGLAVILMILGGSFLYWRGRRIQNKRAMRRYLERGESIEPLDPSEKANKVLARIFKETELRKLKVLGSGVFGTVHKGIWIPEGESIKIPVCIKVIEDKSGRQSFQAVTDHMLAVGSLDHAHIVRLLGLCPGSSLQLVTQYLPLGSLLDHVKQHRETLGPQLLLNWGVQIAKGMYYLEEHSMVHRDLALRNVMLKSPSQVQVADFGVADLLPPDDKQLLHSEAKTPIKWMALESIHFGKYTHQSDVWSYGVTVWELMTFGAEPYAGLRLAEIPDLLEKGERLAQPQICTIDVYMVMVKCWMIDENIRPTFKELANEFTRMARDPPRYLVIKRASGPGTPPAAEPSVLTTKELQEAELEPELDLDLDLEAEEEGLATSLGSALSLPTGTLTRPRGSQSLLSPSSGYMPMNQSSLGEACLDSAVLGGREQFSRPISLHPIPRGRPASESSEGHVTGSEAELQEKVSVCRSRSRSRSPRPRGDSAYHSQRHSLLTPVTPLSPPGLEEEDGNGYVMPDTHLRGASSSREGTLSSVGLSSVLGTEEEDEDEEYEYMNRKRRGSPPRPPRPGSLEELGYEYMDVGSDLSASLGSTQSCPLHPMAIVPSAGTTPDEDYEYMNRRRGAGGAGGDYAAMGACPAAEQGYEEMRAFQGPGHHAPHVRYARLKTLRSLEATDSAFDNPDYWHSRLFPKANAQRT
Described as above. It is filed as binding. The note with it: antibody up to 10 μg/ml. Here is the method:
as §1, §2, §3, §4

The target in another assay is T3, human EGFR (Homo sapiens, UniProt P00533).
T3 construct: purchased Sino Biological Inc., China
Described as above. The following applies: antibody up to 10 μg/ml. It is filed as binding. Here is the method: as §1
as §2, with “After washing, plates were developed with colorimetric detection substrate 3,3′,5,5′-tetramethylbenzidine (Turbo-TMB; Pierce, USA) for 10 min.” left out
(§5) The antibodies were analysed for their ability to bind to human HER3 polypeptide as well as human HER1 (EGFR) and human HER2 (Sino Biological Inc., China). […]
(§6) ELISAs were carried out according to standard protocols. […] The reaction was stopped with 2M H2SO4, and OD was measured at 450 nm.

The target of another assay is T4, human HER2 (Homo sapiens, UniProt P04626).
T4 construct: purchased Sino Biological Inc., China
The assay is described as above. It is filed as binding. The note with it: antibody up to 10 μg/ml. On the procedure:
as §1
as §2, with “After washing, plates were developed with colorimetric detection substrate 3,3′,5,5′-tetramethylbenzidine (Turbo-TMB; Pierce, USA) for 10 min.” left out
as §5, §6

The test system of a further assay is A549 cells. Description: A549 cell-line derived mouse model of lung adenocarcinoma. It is filed as in vivo. The following applies: NPG mice; IP weekly 500 μg per dose, 4 doses. Here is the method: Female NCr nude mice approximately 6-8 weeks old were purchased from InVivos (Singapore). Animals were housed under specific pathogen-free conditions and were treated in compliance with the Institutional Animal Care and Use Committee (IACUC) guidelines.
Tumor volumes were measured 3 times a week using a digital caliper and calculated using the formula [L×W2/2]. Study End point was considered to have been reaches once the tumors of the control arm measured >1.5 cm in length.
The model was established by subcutaneous injection of 1×10^6 A549 cells into the right flanks of female NCr nude mice (n=6 mice per treatment group).
Anti-HER3 antibody clone 4-35-B2 was administered IP weekly at a dose of 500 μg per dose (total of 4 doses). A control treatment group received an equal volume of PBS (6 mice per treatment group).
Tumour cells were inserted subcutaneously into the right flanks of female NCr nude mice.

T1 sequence (Q61526 20-1339): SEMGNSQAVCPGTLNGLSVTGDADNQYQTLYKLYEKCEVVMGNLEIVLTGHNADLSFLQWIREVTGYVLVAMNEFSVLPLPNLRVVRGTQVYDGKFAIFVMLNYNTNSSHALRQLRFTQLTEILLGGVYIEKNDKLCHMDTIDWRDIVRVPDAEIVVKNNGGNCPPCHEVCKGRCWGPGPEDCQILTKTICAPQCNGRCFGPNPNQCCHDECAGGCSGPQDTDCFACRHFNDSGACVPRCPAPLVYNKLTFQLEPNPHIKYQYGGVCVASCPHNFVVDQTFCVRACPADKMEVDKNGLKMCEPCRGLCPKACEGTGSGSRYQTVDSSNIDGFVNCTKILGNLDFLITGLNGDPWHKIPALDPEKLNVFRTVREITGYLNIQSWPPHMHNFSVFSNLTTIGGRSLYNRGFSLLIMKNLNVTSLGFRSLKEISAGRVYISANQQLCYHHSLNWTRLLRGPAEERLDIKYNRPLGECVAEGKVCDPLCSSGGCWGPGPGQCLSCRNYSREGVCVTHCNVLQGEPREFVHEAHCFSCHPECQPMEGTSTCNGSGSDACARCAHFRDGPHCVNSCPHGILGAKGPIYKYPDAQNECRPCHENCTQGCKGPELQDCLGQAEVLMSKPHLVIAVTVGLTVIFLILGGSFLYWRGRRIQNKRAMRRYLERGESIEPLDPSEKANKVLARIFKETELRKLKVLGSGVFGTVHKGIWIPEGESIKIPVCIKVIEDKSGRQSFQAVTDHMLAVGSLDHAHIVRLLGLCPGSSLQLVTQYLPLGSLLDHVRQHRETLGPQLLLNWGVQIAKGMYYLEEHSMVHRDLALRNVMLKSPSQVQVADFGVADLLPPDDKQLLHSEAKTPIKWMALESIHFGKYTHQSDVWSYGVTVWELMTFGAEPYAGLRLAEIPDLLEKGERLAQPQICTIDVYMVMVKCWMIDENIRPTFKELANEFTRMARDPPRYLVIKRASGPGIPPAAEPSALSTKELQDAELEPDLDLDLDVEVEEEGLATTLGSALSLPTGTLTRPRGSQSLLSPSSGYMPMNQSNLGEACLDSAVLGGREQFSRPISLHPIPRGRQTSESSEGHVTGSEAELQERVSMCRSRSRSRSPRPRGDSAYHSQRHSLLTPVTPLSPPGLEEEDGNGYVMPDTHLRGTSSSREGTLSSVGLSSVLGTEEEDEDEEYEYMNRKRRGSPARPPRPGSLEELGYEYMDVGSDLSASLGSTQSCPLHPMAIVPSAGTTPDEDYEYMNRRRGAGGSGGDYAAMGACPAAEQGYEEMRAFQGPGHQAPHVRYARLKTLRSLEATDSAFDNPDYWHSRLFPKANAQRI

B1: 4-35-B2: anti-HER3 clone 4-35-B2 IgG1; polypeptides SEQ ID NO:218 + 219 (antibody)
heavy: EIQLQQSGPELVKPGASVKVSCKASGYSFTDYNMYWVKQSHGKSLEWIGHINPYNGGTTYNQKFKGRATLTVDKSSSTAFMHLNSLTSEDSAVYFCVSLRWGAMDYWGQGTSVTVSS[human IgG1 constant region left out]
light: QIVLTQSPALMSASPGEKVTMTCSASSSVSYMYWYQQKPRSSPKPWIYLTSNLASGVPARFSGSGSGTSYSLTISSMEAEDAATYYCQQWNSNPYTFGGGTKLEIKRTVAAPSVFIFPPSDEQLKSGTASVVCLLNNFYPREAKVQWKVDNALQSGNSQESVTEQDSKDSTYSLSSTLTLSKADYEKHKVYACEVTHQGLSSPVTKSFNRGEC
modifications: 4-35-B2 VH-CH1-CH2-CH3; 4-35-B2 VL-Ckappa
As for B1, the “binding to / cross-reactivity with cynomolgus macaque HER3” value in the assay on cynomolgus macaque HER3 is “substantial cross-reactivity”. Also, the “binding to / cross-reactivity with mouse HER3” value with mouse HER3 is given as “substantial cross-reactivity”. Also, the “binding to / cross-reactivity with rat HER3” value with rat HER3 is recorded as “substantial cross-reactivity”. In addition, the “binding to human EGFR (HER1)” value with human EGFR is “found to bind”. Besides, the “binding to human HER2” value with human HER2 is on record as “found to bind”. For the same molecule, the “inhibition of tumor growth” value in the assay with A549 cells is approximately 63%.
